In the RNAGym collection of RNA variant scans (doi:10.7554/elife.90254) one finds self-cleavage data, which are given here for 167 variants.

The source gives no read counts; variants with many changes may rest on few reads.

Sequences and labels used below:
B1: LINE1-full (parent)
chain: UACGUAGGUGGUUUUCCCCUGAUAGUGCUAAGGGGGCCUGGAAGUUUGGACUGGGCAGAGCUCAACACAGCGUGGCAAAGUGGCUGUGGCUAGACUGCCUCUCUGGAUUCCUCGUCACUCAGCAGGGCAUCUCUGAGAGAAAUGCC

The variants in the series derive from B1. The series is described as follows: self-cleavage, relative activity (ratio to wild type); higher = more cleavage; in vitro, sequencing; the parent is a self-cleaving ribozyme.
On to U5A U81C A140G, for which the self-cleavage is 0.28.

Regarding U5C U20A U39C G86U U96C A117G, the self-cleavage was 0.66.

As to U5C U12G A31U U100C U115C A117U A138G, the self-cleavage was 2.04. Consider U5C U62A U73C G97A U109C U119C, for which the self-cleavage came to 0. In the case of U5C U20C A129U, the self-cleavage amounted to 0.89. For U5C U15C U45A U102C, the self-cleavage was 0.98.

On to U5C A64G U132A, for which the self-cleavage came out at 0.

On to U5A U46A U91A C113A A129G, for which the self-cleavage was found to be 0.1.

Consider U5C G27U C38A U73C U96A A129G, for which the self-cleavage was found to be 0.09. Consider A6G A24U A42G, for which the self-cleavage stood at 0.58. On to U5C U15C A78U A136C A138G, for which the self-cleavage is 1.29. For the variant U5C U14A A65G U73C U108A, the self-cleavage is 0. The figure for U5C U104C U134C is 1.93; for U5C G41A A69U U87A it is 0.02.

As to A6G A22G A43U A79G, the self-cleavage was 1.06.

Turning to U5C A77G A121G U143A, the self-cleavage was found to be 1.84. The figure for U5C U15C U81C is 1.84. Regarding U5C U14C U52C U81C A121U, the self-cleavage was 0.92.

Turning to U5C U23A A78G U109C A138G, the self-cleavage was determined as 1.89. Consider U5C U39G A129G, for which the self-cleavage is 1.47. The figure for U5C U9A U39C A64G is 0.6. The figure for U5C A31G A64G U104C is 0.88; for A6C C51U U96C U130C it is 0.23. In the case of U5C U15C U39C U130C, the self-cleavage stood at 1.23.

U5C G11A G41A U47A A69G: the self-cleavage was 0.31. Take U5C G122A A136U: the self-cleavage is 2.07. Take U5C G80A A138G: the self-cleavage was found to be 2.47. In the case of U5C U15A C111U A138U, the self-cleavage amounted to 1.39. With U5A U62A A79G G114A, the self-cleavage was determined as 0.07.

Turning to U5C U20G A59G, the self-cleavage is 0.31. Consider U5C C71U U112C, for which the self-cleavage stood at 0.55. For U5A U14C U85C U87C U143A, the self-cleavage turned out to be 0.51. As for U5C A30G A121U, the self-cleavage is 0.98. Turning to U5A U46C U73C C110U, the self-cleavage came to 1.2.

In the case of U5C U12C C128A A129G, the self-cleavage came to 0.78. For U5C A31G U119A, the self-cleavage is 1.02. With U5C A42U A142G, the self-cleavage is 1.1. Take U5C A107G A117U: the self-cleavage came to 1.21.

Take U5C G97A U100C U132C: the self-cleavage is 0.71. Consider U5C U9C U96A, for which the self-cleavage is 0.12. As for U5C C17G A22G, the self-cleavage came to 0.33.

Regarding U5C A129G A142C, the self-cleavage worked out at 0.63.

On to U5C A30G A69G, for which the self-cleavage came to 0. As for A6G A30U A65G U109C, the self-cleavage was 0. U5C A67G A92G: the self-cleavage was 0. Consider A6C U23C G122A A124G, for which the self-cleavage was found to be 0.

As to U5C A69G A138G, the self-cleavage was found to be 0.4.

In the case of A6C U15A A77U U115A, the self-cleavage came out at 0.78.

Regarding U5C U13A A69C A140G, the self-cleavage stood at 0.08. For the variant U5C U87A U102C A129U, the self-cleavage was 0. In the case of U5C A92U U115C, the self-cleavage turned out to be 0.38. The same measure for A6G A43G C51U A57G U96C: 1.41; for U5C U45A U112A U143C: 0.89. Take A6G A22G C71U A121U A140G: the self-cleavage was 0.55. In the case of U5A U52A A57U, the self-cleavage was found to be 0.24. Take U5C C18A U96A: the self-cleavage worked out at 0.17. The figure for U5C A43U U46C G54U A77G G83A U115G is 1.3; for U5C A57G A69G U132C it is 0; for U5A U26A G86A it is 0.05. For A6C U14C U85A, the self-cleavage came to 0.31. Consider A6G A31G U47A A129G, for which the self-cleavage is 0.75. Regarding U5C A30G A31G, the self-cleavage was 1.75. As to U5A U15C U87C, the self-cleavage came out at 0.29. Consider U5C G93U U96A U115A C120U, for which the self-cleavage was 0.08.

For the variant U5C A78G C84U U119C U134A, the self-cleavage came to 0.46. Regarding U5C G49A U115C, the self-cleavage worked out at 1.15. In the case of U5C U108C C123U, the self-cleavage was found to be 1.04.

On to U5C U13C G53U A124U, for which the self-cleavage was found to be 1.75. On to U5C U14A G127C U134C A138G, for which the self-cleavage came to 1.56. As to U5G U13C U102C A124U, the self-cleavage was 0.41.

Turning to U5C A22G A50G U119A G127A, the self-cleavage was found to be 0.38. Turning to U5C U112C A136U, the self-cleavage was determined as 1.64. The figure for U5C U26A G82A U100C U119C is 2.35; for A6G A59G A78U U81G G89A it is 0. U5C A77U U87C A124U: the self-cleavage turned out to be 0.17.

U5C U73C U85C G122A: the self-cleavage turned out to be 0.17.

As to U5C U13G U39A A79G, the self-cleavage was 1.34.

On to U5C A65G A140G, for which the self-cleavage is 0.15. For the variant U5C U87A U104A U132C, the self-cleavage came out at 0.09. Consider U5C A69G G122A A140G, for which the self-cleavage was 0.68. Consider U5C A24U G75A U134C, for which the self-cleavage worked out at 1.67. For U5A U14C U119A G127A, the self-cleavage was 1.06. As for U5C G70U U73A U104A U108C, the self-cleavage was found to be 0.05.

On to A6G A24G A64U U91C A92G, for which the self-cleavage came to 0. The figure for A6C U13C U14G A69U A121U is 0.14; for A6G A59G U62A A65G U100A it is 0. The figure for U5A U39A C123U U132C is 0.59; for U5A U39A U81G A94G it is 0.51; for U5G U14C C116U it is 0.43. Take U5C C51U U102C: the self-cleavage is 0.9.

As to U5C A24G U45C C98U U100A, the self-cleavage was 0.36. For the variant U5C C101U U102C U104A U134A, the self-cleavage is 0.86.

Turning to U5C C16U U115A, the self-cleavage was determined as 0.33. The figure for U5C A94G C98A U112C is 0.19; for U5C U13C A24G it is 0.57. Take U5C U23A C68U U115C A117C: the self-cleavage turned out to be 1.21. U5C A78G G89A U104C U109C: the self-cleavage stood at 0.17. For the variant U5A U20C U85A U104C, the self-cleavage turned out to be 0.09. With U5C U39A U102C U132A G144A, the self-cleavage came to 2.21. Turning to U5C U15C A117U, the self-cleavage came to 0.44. Consider U5C A24G U62C, for which the self-cleavage was 0. On to U5C A78G A94G G127U U134C, for which the self-cleavage came to 0.84. With U5A U15C A141G, the self-cleavage worked out at 1. On to U5C A42U U143C, for which the self-cleavage amounted to 0.77.

With U5C U81A U115A, the self-cleavage was 1.41. On to U5C A50G U85A U96C, for which the self-cleavage stood at 0. For the variant U5C U45C U85C A138G, the self-cleavage was 0.

Turning to U5C U45C U73C, the self-cleavage is 0.45.

In the case of U5C U73A U104A, the self-cleavage came to 1.09.

Regarding U5C A92U C99G U100A, the self-cleavage was 0. The same measure for U5C A78G A92U U96A: 0; for U5C U91C U100C A107G: 0; for U5C A22G A77U A129G: 1.45.

With U5C A22G U81A U119C, the self-cleavage turned out to be 2.63.

On to U5C A64U G82A, for which the self-cleavage is 0.78. Turning to U5C U14C U46C U112C, the self-cleavage stood at 0.35. For U5A U26A C37G A59G U96A, the self-cleavage amounted to 0.27. On to U5A U62A A67G, for which the self-cleavage was 0.2. On to U5A U52C U108A, for which the self-cleavage was 1.27. The figure for U5C U9A A69G U87C A140G is 0; for U5C U46A U47C U112C G127U it is 0.53; for U5C U14A U52A U96C U112C A124U it is 0.19. As to U5C U134G A140G, the self-cleavage was determined as 2.06.

Take A6G A24G A64G U132C: the self-cleavage was 0.98. With U5C U13C A124G, the self-cleavage worked out at 0. In the case of U5C U96C U104C G106A A124U, the self-cleavage was 0.17. Turning to U5C G75A U81A G137A, the self-cleavage amounted to 0.68. As to U5C U14C C61A, the self-cleavage worked out at 0.21. The same measure for A6G A24U C128U: 1.21; for U5C A77U A78G U134A: 0.58. As to U5C U20A U45C A79G U96A U104C, the self-cleavage turned out to be 0. In the case of U5C G8A A42G, the self-cleavage came out at 1.1. In the case of A6C U23A U130C, the self-cleavage was determined as 1.26. U5A U62C A140G: the self-cleavage stood at 0.07.

Regarding U5A U91C U100A, the self-cleavage is 0.37. Take U5C U12C A65U U91A U100C: the self-cleavage worked out at 0.7. As for U5C G74A U132C, the self-cleavage is 1.37. The figure for U5A U46C U100A C111U U130A A142G is 1.44; for U5C C38U G40C G49A A69G G106C A117U it is 0.31. The figure for U5C U13C U115A is 0.35. Regarding U5C G36A A94G U109C U112C, the self-cleavage came out at 0. For U5A U20C U112C, the self-cleavage was found to be 0.64.

With A6G A57G A117G, the self-cleavage was determined as 0. As to U5C A121G U130C, the self-cleavage amounted to 1.12. Regarding A6G A42G C103A, the self-cleavage amounted to 1.23. With A6G A30G A65G C66A A69G U85A A92G, the self-cleavage worked out at 1.15. The same measure for U5A U20G C61U A136G: 0.08; for U5A U20C U96C C131U A140U U143A: 0.62; for U5G U39A U62C C84U A141G: 0.1.

For the variant U5C U73C A107G, the self-cleavage came out at 0. With U5C G80A A136G, the self-cleavage worked out at 2.8.

In the case of U5C A57C A77U U109A U130C, the self-cleavage was 0.61.

Turning to A6C U112C U119A, the self-cleavage amounted to 0.68. The same measure for U5C U112C A141U: 0.56; for U5C U39C G72A A94G: 0.2. The same measure for U5A U26C U45A U119C U134A A141G A142G: 0.86; for A6G A43G A64U U130C: 0.57.

For the variant U5C U100C U112C, the self-cleavage stood at 0.61. As for U5C U39C G93A U96C U132A, the self-cleavage was 0.11.

In the case of A6C U29G C51U, the self-cleavage came to 1.39. With A6G A57G U104A A117G, the self-cleavage was 0. On to U5C U52C U87C, for which the self-cleavage is 0. Consider A6G A57G U62C U85A U115C U119A, for which the self-cleavage came to 0. Take U5C U13C A79G A94G C113U: the self-cleavage came out at 0.67. As for U5C A50U A59U U119C G122A, the self-cleavage came out at 1.17. The same measure for U5C U26A U108C: 1.75. Turning to A6C A22G A79G U96A A141G, the self-cleavage was found to be 0.16.
